From the supplement of paper PMC9446081 come the findings set out here.

SMILES strings stand for the structures. Among all 39,000 compounds or so, about 220 (0.56%) showed activity. Some of the results follow.
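Also: static incubation at 37 °C against the wild-type strain, values averaged over two biological replicates.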

The assay concerns Escherichia coli K-12 BW25113. The experiment in a line: relative growth (OD600 normalised to plate interquartile mean) (fraction); higher = less growth inhibition, active = 0.2 or less. The conditions noted are these: 50 µM; LB; incubation time: overnight (16-24 h).
In the case of `NCCc1ccc(O)c(O)c1`, the relative growth was inactive: 0.99.

In the case of `C[C@@H]1CN([C@H](C)CO)S(=O)(=O)c2ccc(C3=CCCC3)cc2O[C@H]1CN(C)C(=O)C1CCOCC1`, the relative growth was inactive: 1.01.

As for `Cc1noc(C)c1NC(=O)Nc1ccc2c(c1)C(=O)N([C@H](C)CO)C[C@H](C)[C@@H](CN(C)Cc1ccc3c(c1)OCO3)OCCCC[C@@H](C)O2`, the relative growth is inactive: 1.03. The figure for `C[C@@H]1CN([C@H](C)CO)C(=O)c2cccc(NS(=O)(=O)c3ccccc3)c2O[C@@H]1CN(C)S(=O)(=O)c1cccs1` is inactive: 0.999; for `C[C@@H]1CN([C@H](C)CO)C(=O)c2cc(NC(=O)Nc3ccc(F)cc3)ccc2O[C@@H]1CN(C)CC1CCCCC1` it is inactive: 0.987. The figure for `CC(C)NC(=O)N(C)C[C@@H]1OCCCC[C@@H](C)Oc2ccc(NC(=O)C3CCCCC3)cc2C(=O)N([C@H](C)CO)C[C@@H]1C` is inactive: 0.996; for `C[C@H]1CN([C@@H](C)CO)C(=O)c2cc(NC(=O)Nc3ccc(F)cc3)ccc2O[C@H]1CN(C)Cc1ccc(Oc2ccccc2)cc1` it is inactive: 0.982. In the case of `C[C@@H]1CCCCO[C@@H](CN(C)CC2CCCCC2)[C@H](C)CN([C@@H](C)CO)C(=O)c2cc(NC(=O)Nc3ccc(C(F)(F)F)cc3)ccc2O1` it was inactive: 1.02; in that of `C[C@@H]1CN([C@H](C)CO)C(=O)c2cc(NC(=O)Nc3ccc(C(F)(F)F)cc3)ccc2O[C@H]1CN(C)Cc1ccc(C(F)(F)F)cc1`, inactive: 1.02. On to `Cc1ccc(S(=O)(=O)N(C)C[C@@H]2Oc3ccc(NC(=O)NC(C)C)cc3CC(=O)N([C@H](C)CO)C[C@H]2C)cc1`, for which the relative growth is inactive: 1.03. The figure for `O=C(C[C@H]1CC[C@H]2[C@@H](COC[C@@H](O)CN2C(=O)Nc2cccc(Cl)c2)O1)NCc1ccccc1F` is inactive: 1.02; for `CN1CCN(C(=O)C[C@@H]2CC[C@@H]3[C@H](COC[C@H](O)CN3C(=O)C3CCOCC3)O2)CC1` it is inactive: 0.99. In the case of `C[C@H]1CN([C@@H](C)CO)C(=O)c2cccc(NS(=O)(=O)c3ccccc3)c2O[C@H]1CN(C)S(=O)(=O)c1ccc(F)cc1` it was inactive: 0.982. In the case of `C[C@@H]1CN([C@@H](C)CO)C(=O)c2cc(NS(=O)(=O)c3ccccc3)ccc2O[C@@H](C)CCCCO[C@H]1CN(C)C(=O)Nc1cccc2ccccc12` it was inactive: 1.02; in that of `N[C@H]1CCCN(Cc2ccc(F)cc2)C1`, inactive: 1.03; in that of `C=CCn1c(=O)c2c(nc(NCCO)n2C)n(C)c1=O`, inactive: 0.994. Consider `CCNC(=O)C[C@@H]1CC[C@@H](NC(=O)C2CC2)[C@H](CO)O1`, for which the relative growth was inactive: 1.05. In the case of `O=C(C[C@@H]1C[C@H]2c3cc(NC(=O)NC4CCCC4)ccc3O[C@H]2[C@@H](CO)O1)NCCN1CCCCC1` it was inactive: 1.01.

For the molecule `C[C@H](CO)N1C[C@H](C)[C@H](CN(C)C(=O)Nc2cccc3ccccc23)Oc2ccc(NC(=O)Nc3ccc(F)cc3)cc2CC1=O`, the relative growth is inactive: 0.99. In the case of `Cc1ccc(S(=O)(=O)Nc2ccc3c(c2)C(=O)N(C)[C@H]2CC[C@H](CC(=O)NCCc4ccncc4)O[C@@H]2CO3)cc1` it was inactive: 0.995. The figure for `C[C@H](CO)N1C[C@H](C)[C@@H](CN(C)S(=O)(=O)c2cn(C)cn2)OCCCC[C@H](C)Oc2ccc(NS(=O)(=O)c3cccs3)cc2C1=O` is inactive: 0.95; for `C[C@H]1CN([C@@H](C)CO)C(=O)CCCn2cc(nn2)CO[C@H]1CN(C)S(=O)(=O)c1ccc(C#N)cc1` it is inactive: 1.03.

Turning to `COCCNC(=O)C[C@@H]1C[C@@H]2c3cc(NS(C)(=O)=O)ccc3O[C@@H]2[C@H](CO)O1`, the relative growth is inactive: 1. For the molecule `CCS(=O)(=O)N1CC[C@]2(CC1)CN(Cc1ccc3c(c1)OCO3)[C@H](CO)c1[nH]c3cc(ccc3c12)OC`, the relative growth is inactive: 1.05.

Consider `C[C@@H]1CCCCO[C@@H](CN(C)S(=O)(=O)c2ccc(F)cc2)[C@@H](C)CN([C@H](C)CO)C(=O)c2cc(NC(=O)Nc3ccc(C(F)(F)F)cc3)ccc2O1`, for which the relative growth is inactive: 1.05. The figure for `Cc1noc(C)c1NC(=O)N(C)C[C@@H]1Oc2ccc(NS(=O)(=O)c3cccs3)cc2CC(=O)N([C@@H](C)CO)C[C@@H]1C` is inactive: 1; for `CCCNC(=O)N1C[C@]2(CN(C2)S(=O)(=O)c2ccc(cc2)OC)c2c(n(c3cc(ccc23)OC)C)[C@H]1CO` it is inactive: 0.993; for `CC(C)NC(=O)Nc1ccc2c(c1)C(=O)N([C@H](C)CO)C[C@H](C)[C@H](CN(C)S(=O)(=O)c1cccs1)O2` it is inactive: 0.98. Turning to `C=CCNC(=O)[C@@H]1[C@H]2C(=O)O[C@H](c3ccccc3)[C@H](c3ccccc3)N2[C@H](c2ccccc2OCCO)[C@@]12C(=O)Nc1ccc(C#CC3=CCCCC3)cc12`, the relative growth is inactive: 1.06. In the case of `O=C(O)c1cn(C2CC2)c2cc(N3CCC(O)(COc4ccc(N5C[C@H](CO)OC5=O)cc4F)CC3)c(F)cc2c1=O` it was active: 0.111. For `C[C@@H]1CN([C@H](C)CO)C(=O)c2cc(NC(=O)C3CCCCC3)ccc2O[C@@H](C)CCCCO[C@@H]1CN(C)CC1CCCCC1`, the relative growth is inactive: 0.975. The figure for `C[C@H](CO)N1C[C@H](C)[C@@H](CN(C)Cc2ccc(Oc3ccccc3)cc2)Oc2ccc(NC(=O)Nc3ccc(F)cc3)cc2CC1=O` is inactive: 0.974; for `Cn1cnc(CCNC(=O)C[C@@H]2CC[C@H]3[C@@H](COC[C@H](O)CN3C(=O)C3CC3)O2)c1` it is inactive: 0.992.

Turning to `CCN(CC)c1ccc2c(-c3ccc(S(=O)(=O)O)cc3S(=O)(=O)O)c3ccc(N(CC)CC)cc3[o+]c2c1`, the relative growth is inactive: 1.09.

Turning to `Cc1noc(C)c1S(=O)(=O)Nc1ccc2c(c1)C(=O)N([C@H](C)CO)C[C@@H](C)[C@@H](CN(C)S(=O)(=O)c1ccc(Cl)cc1)O2`, the relative growth is inactive: 0.996. In the case of `COc1ccc(NC(=O)Nc2ccc3c(c2)C(=O)N([C@H](C)CO)C[C@H](C)[C@@H](CN(C)Cc2ccc(Cl)c(Cl)c2)O3)cc1` it was inactive: 0.965; in that of `C[C@H]1CN([C@@H](C)CO)C(=O)c2cc(NC(=O)Nc3ccccc3)ccc2O[C@@H]1CN(C)Cc1ccc(Oc2ccccc2)cc1`, inactive: 0.994; in that of `CCCN1C[C@H](C)[C@H](OC)CN(C)C(=O)c2cc(NS(=O)(=O)c3cn(C)cn3)ccc2OC[C@H]1C`, inactive: 0.943.
